According to PubChem BioAssay AID1671188 (National Center for Advancing Translational Sciences (NCATS), 2021):
The whole screen tested about 100,000 compounds, of which about 250 (0.25%) were called active. The inconclusive results got no clear call from the source; some entries with a clear call stand among them for comparison. Calls come from the whole dose curve; as a rule, active = well fitted inhibition curve with a large enough effect; inconclusive = small, poorly fitted or top-dose-only effect; inactive = flat fitted curve, though single readings scatter. Potencies of inconclusive entries are left out as doubtful fits.

molecular target: Alanine aminotransferase 2 (Homo sapiens) (UniProt Q8TD30); test: Primary qHTS assay for inhibitors of Glutamate pyruvate transaminase 2 (GPT2); conditions: Recombinant GPT2, coupled pyruvate oxidase/HRP Amplex Red fluorescence; activity change, negative = inhibition: at 57.7 µM (top of the series) unless noted; series mostly up to 57.7 µM; note: nearly all actives have a fitted effect of over 60% in size
How it was run: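 Inhibition is scored from Amplex Red fluorescence generated when pyruvate oxidase and HRP act on pyruvate released by GPT2. Reactions contain 10ng/uL enzyme, 250uM a-KG and 2mM L-alanine and run 30 min at room temperature.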
% is set by controls: 0 for no effect and ±100 for the full control effect; potency is the fitted concentration of half-maximal effect; tags give direction and shape of the fitted curve.

UniProt Q8TD30, sequence (Q8TD30 whole entry, looked up): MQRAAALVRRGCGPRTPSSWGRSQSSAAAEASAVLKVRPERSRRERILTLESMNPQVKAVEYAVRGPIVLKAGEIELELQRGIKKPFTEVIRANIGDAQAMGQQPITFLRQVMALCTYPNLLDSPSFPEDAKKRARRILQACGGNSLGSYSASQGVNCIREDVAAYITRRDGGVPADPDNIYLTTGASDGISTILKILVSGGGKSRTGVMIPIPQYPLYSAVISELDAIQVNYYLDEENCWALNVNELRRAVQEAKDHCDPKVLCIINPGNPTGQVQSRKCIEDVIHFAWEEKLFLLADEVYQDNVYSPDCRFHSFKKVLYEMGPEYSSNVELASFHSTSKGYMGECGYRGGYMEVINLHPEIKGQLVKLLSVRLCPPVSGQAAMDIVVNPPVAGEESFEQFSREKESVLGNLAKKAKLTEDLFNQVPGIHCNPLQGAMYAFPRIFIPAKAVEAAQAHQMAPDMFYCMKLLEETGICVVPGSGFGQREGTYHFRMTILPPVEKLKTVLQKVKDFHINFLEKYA

`O=C1CC(c2ccccc2)N(Cc2ccncc2)CCCN(C(=O)NCc2ccccc2)CCN1` (stereo not given) was tested. Which “outcome” value did it give?
Its value is “inactive”.

`Cc1cccc(-c2noc([C@@H]3C[C@@H](O)CN3C3CCOCC3)n2)c1` was tested. Which “outcome” value did it give?
Its value is “inactive [at 88.5 µM]”.

With `Cc1c(-c2ccccc2F)[nH]c2ccc(CNS(=O)(=O)C3CC3)cc12` as the compound, how does the Potency read?
Its Potency is inconclusive [inhibitor, partial curve, poor fit].

Which Potency does the source give for `CC(C)CCNC(=O)c1ccc2c(c1)nc(Nc1n[nH]c3ccc(-c4ccccc4OC(F)(F)F)cc13)n2C1CCC(O)CC1` (stereo not given) here?
Its Potency is inconclusive [inhibitor, single point].

For `O=C(c1ccc(C(F)(F)F)cc1)N1CCCC1C(=O)N1CCCC1c1nc2ccncc2[nH]1` (stereo not given), which “activity change, negative = inhibition” value is on record?
The value was inactive: -11.6%.

For `Cc1ccc(NC(=O)c2cccc(C(C)(C)C#N)c2)cc1Nc1ccc2ncn(C)c(=O)c2c1`, which Potency is on record?
The Potency was inconclusive [inhibitor, single point].

How did the Potency turn out when `COc1ccc(Nc2ccnc(N3CCCC(C(=O)NCc4cccs4)C3)n2)cc1` (stereo not given) was run?
Its Potency is inconclusive [inhibitor, single point].

How did the Potency turn out when `CC(=O)N1CC2(Cc3ccccc31)CN(C(=O)Cc1ccc(F)cc1)C2` was run?
Its Potency is inconclusive [inhibitor, full curve].

Which Potency does the source give for `COCC(=O)N1CCCC1C(=O)N1CCC(N2CCOCC2=O)CC1` (stereo not given) here?
The Potency was inconclusive [inhibitor, single point].

For `Cn1ccc(NCc2nc3c(n2Cc2ccccc2)C(=O)N(Cc2cccc(Cl)c2)CCN3)n1`, which “activity change, negative = inhibition” value is on record?
Its value is inactive: 1.67%.

How did the Potency turn out when `O=C(C1CCN(c2cnn(CC3CC3)c(=O)c2)C1)N1CCc2ccccc2C1` (stereo not given) was run?
The Potency was inconclusive [inhibitor, single point].

Which Potency does the source give for `CN1CCC2(Cc3ccccc3CN(C(=O)CCC(=O)O)C2)C1` (stereo not given) here?
The Potency was inconclusive [inhibitor, single point].

How did the activity change, negative = inhibition turn out when `CC[C@H]1CN(C(=O)Nc2cccc(C(F)(F)F)c2)CC[C@H]1CC(=O)NCc1ccccc1` was run?
The activity change, negative = inhibition was inconclusive: -31.2% [inhibitor].

`Cc1ccc(F)c(NC(=O)Nc2ccc(-c3cccc4[nH]nc(N)c34)cc2)c1` was tested. Which Potency did it give?
The Potency was inconclusive [inhibitor, partial curve, poor fit].

`Cc1cnc(-c2ccccc2)n1C1CCCN(C(=O)COc2ccc(F)cc2)C1` (stereo not given) was tested. Which “activity change, negative = inhibition” value did it give?
Its value is inactive: -4.2%.

Which Potency does the source give for `Cc1ccc(C2Cn3nnc(C(=O)NC4CCCCC4)c3CO2)cc1` (stereo not given) here?
The Potency was inconclusive [inhibitor, single point].

For `O=C(C[C@@H]1CCNC[C@@H]1Cc1cc(-c2ccccc2)on1)NCc1ccc(F)cc1`, which Potency is on record?
Its Potency is inconclusive [inhibitor, partial curve, poor fit].

With `Cc1cc(C)c(CNC(=O)c2nc(-c3ccnn3C)cc3c2ccn3C(C)C)c(=O)[nH]1` as the compound, how does the Potency read?
Its Potency is inconclusive [inhibitor, single point].

With `Cc1cccc(C(=O)Nc2cccc(C3OC(=O)N(Cc4ccccc4)C3C(=O)N3CCOCC3)c2)c1` (stereo not given) as the compound, how does the “activity change, negative = inhibition” value read?
The value was inactive: -4.77%.

Which “activity change, negative = inhibition” value does the source give for `O=C(Nc1ccccc1)N1CCC2(CC1)SCC(=O)N2c1ccc(Cl)cc1` here?
The value was inactive: 1.37%.

With `O=C(C1CCN(CC2CC2)CC1)N1CCC(c2nc3ncccc3[nH]2)CC1` as the compound, how does the “outcome” value read?
The value was “inactive”.

How did the “outcome” value turn out when `CC(C)c1ccc(Nc2n[nH]c(C(O)C3CC3)n2)cc1` (stereo not given) was run?
Its value is “inactive [at 88.5 µM]”.

For `COC(=O)CC(O)C1OC(c2ccccc2)C(O)C1O` (stereo not given), which Potency is on record?
The Potency was inconclusive [inhibitor, single point].

How did the activity change, negative = inhibition turn out when `COc1ccc(-c2nc3cc(C)ccc3cc2CN2CC[C@@H](O)C2)cc1OC` was run?
Its activity change, negative = inhibition is inactive: -23.5% [at 11.5 µM].

With `COCCOc1cc(=O)n2c(c1C(=O)NC1CCCCCC1)CCOCC2` as the compound, how does the Potency read?
The Potency was inconclusive [inhibitor, single point].

For `CCOc1ccccc1NC(=O)Cn1ccn2nc(-c3ccc(F)cc3)c(CO)c2c1=O`, which Potency is on record?
The Potency was inconclusive [inhibitor, full curve, poor fit].

For `COc1cccc(CN2CC3(C2)NC(=O)c2ccccc2O3)c1`, which Potency is on record?
The Potency was inconclusive [inhibitor, partial curve, poor fit].

Which Potency does the source give for `N#Cc1cccc(NC(=O)O[C@@H]2CO[C@H]3[C@@H]2OC[C@@H]3Nc2nccc(-c3cccc(F)c3)n2)c1` here?
Its Potency is inconclusive [inhibitor, single point].

With `Cc1nn(CC(=O)NCc2cccnc2)c(=O)c2nc(-c3ccccc3)sc12` as the compound, how does the Potency read?
The Potency was inconclusive [inhibitor, single point].

For `CC(C)(C)[N+]([O-])=Cc1ccc(S(=O)(=O)O)cc1S(=O)(=O)O`, which “outcome” value is on record?
Its value is “inactive”.

With `Cn1c([C@H]2CCN(Cc3cccc(C#N)c3)C2)nc2ccccc21` as the compound, how does the Potency read?
Its Potency is inconclusive [inhibitor, single point].

How did the Potency turn out when `CC1CCN(C(=O)C2CCN(C(=O)N3CC4CC(C3)[C@H]3CCCC(=O)N3C4)CC2)CC1` (stereo not given in full) was run?
The Potency was inconclusive [inhibitor, single point].

Which “activity change, negative = inhibition” value does the source give for `CN(Cc1cc(C[C@@H]2C[C@H](NC(=O)C(C)(C)C)C2(C)C)no1)c1ccccc1` here?
The value was inactive: -6.95% [at 88.5 µM].

For `COC(=O)[C@@H]1CC2=CC(=O)CC[C@]2(C)[C@@]23O[C@@H]2C[C@@]2(C)[C@@H](CC[C@@]24CCC(=O)O4)[C@H]13`, which Potency is on record?
The Potency was inconclusive [inhibitor, single point].

For `CC(C)OC(=O)C1=CN(C(=O)c2ccc(F)c(F)c2)CC(C)(C)c2c1[nH]c1ccccc21`, which Potency is on record?
The Potency was inconclusive [inhibitor, single point].

Which Potency does the source give for `COCCNC(=O)C[C@@H]1C[C@H]2O[C@H](CNCc3cnccc3C(F)(F)F)[C@@H](O)[C@H]2O1` here?
Its Potency is inconclusive [inhibitor, single point].

With `CNC(=O)c1ccc2c(C(=Nc3cccc(CN(C)C)c3)c3ccccc3)c(O)[nH]c2c1` as the compound, how does the Potency read?
The Potency was inconclusive [inhibitor, single point].

Which Potency does the source give for `N#Cc1ccc(CNC(=O)[C@@H]2Cc3nc[nH]c3CN2C(=O)NC2CCCCC2)cc1` here?
Its Potency is inconclusive [inhibitor, single point].

How did the Potency turn out when `N#Cc1cnc2cnc(NCc3cccnc3)cc2c1Nc1ccc(F)c(Cl)c1` was run?
Its Potency is inconclusive [inhibitor, single point].

How did the Potency turn out when `CC1=C[C@@H](CN2CCN(c3cnccn3)CC2)[C@H](C(C)C)C[C@H]1Cc1nnc(-c2cccnc2)o1` was run?
Its Potency is inconclusive [inhibitor, single point].

How did the Potency turn out when `CSCCC(=O)N1CCc2[nH]nc(-c3ccc(C(F)(F)F)cc3)c2C1` was run?
The Potency was inconclusive [inhibitor, single point].

For `COCCN[C@@H]1C[C@@H]2c3[nH]c4ccccc4c3C[C@@H](C(=O)OC)N2[C@H](c2ccc(C(C)C)cc2)C1`, which Potency is on record?
The Potency was inconclusive [inhibitor, single point].

Which “activity change, negative = inhibition” value does the source give for `Cc1noc(C)c1-c1cc(-c2cccc3cc[nH]c23)cn2cncc12` here?
Its value is inactive: -30.1% [at 88.5 µM].

How did the Potency turn out when `COc1cccc(NC(=O)COc2ccc(-c3nnc4n3CCCC4)cc2)c1` was run?
The Potency was inconclusive [inhibitor, single point].

`CC1(C)SC2C(NC(=O)[C@H](C(=O)O)c3ccsc3)C(=O)N2C1C(=O)O` (stereo not given in full) was tested. Which Potency did it give?
The Potency was inconclusive [inhibitor, single point].

Which Potency does the source give for `Cc1ccccc1N1CCN(C(=O)[C@@]23CCCC[C@H]2N(CCC(C)C)C(=O)CC3)CC1` here?
The Potency was inconclusive [inhibitor, partial curve].

`Cn1cccc1CN1CCCC2(C1)C(=NC1CCCC1)NC(=O)N2c1cc(F)cc(F)c1` (stereo not given) was tested. Which Potency did it give?
Its Potency is inconclusive [inhibitor, partial curve, poor fit].

`Cc1ccc(-c2ccc3ncc4c(c3n2)n(C2CCN(C(=O)[C@H](C)O)CC2)c(=O)n4C)cn1` was tested. Which Potency did it give?
Its Potency is inconclusive [inhibitor, single point].

`COc1ccc(CCC(=O)N2CC(N(Cc3cccnc3)S(C)(=O)=O)C2)cc1` was tested. Which Potency did it give?
Its Potency is inconclusive [inhibitor, full curve, poor fit].

How did the Potency turn out when `CN(C)C[C@@H]1CN(S(C)(=O)=O)C[C@H]1NC(=O)c1cc2ccccc2[nH]1` was run?
The Potency was inconclusive [inhibitor, partial curve, poor fit].

Which Potency does the source give for `CCN1c2cc(C(=O)Nc3cccc(Cl)c3)ccc2C(=O)N2CCCCCC21` (stereo not given) here?
The Potency was inconclusive [inhibitor, single point].

Which Potency does the source give for `COc1ccc(N=C2S[C@H]3[C@H]([C@@H](O)[C@H](O)C[C@@H]3C(N)=O)N2Cc2ccc(F)cc2)cc1` here?
The Potency was inconclusive [inhibitor, full curve, poor fit].

How did the “activity change, negative = inhibition” value turn out when `COc1ccc(CNC(=O)C[C@@H]2C[C@@H](C(C)C)[C@H](CNC(=O)c3ccc(C#N)cc3)C=C2C)cc1` was run?
Its value is inactive: -1.11%.

Which Potency does the source give for `COc1cccc(Nc2ncnn3ccc(CN4CC[C@@H](N)[C@H](O)C4)c23)c1` here?
The Potency was inconclusive [inhibitor, full curve, poor fit].

For `COc1cccc(C(=O)N2CCC3(CC2)NC(=O)N(c2ccc(F)cc2)N3)c1OC`, which Potency is on record?
The Potency was inconclusive [inhibitor, single point].

`COC(=O)[C@H](Cc1ccc(OC)cc1)NC(=O)[C@H]1CN(C(=O)c2cccnc2)CCN1C(=O)NC(C)C` was tested. Which Potency did it give?
Its Potency is inconclusive [inhibitor, partial curve, poor fit].

`CCN(CC)CCNC(C(=O)OCCC(C)C)c1ccccc1` (stereo not given) was tested. Which Potency did it give?
Its Potency is inconclusive [inhibitor, single point].

Which “activity change, negative = inhibition” value does the source give for `O=C1NCc2ccccc2CC12CCCN(Cc1cccc(Cl)c1)C2` (stereo not given) here?
Its value is inactive: 0.233%.

With `COc1ccc(-c2nc(C)nc3c2CCN(Cc2cccc4ccccc24)CC3)cc1` as the compound, how does the “outcome” value read?
The value was “inactive”.

How did the “activity change, negative = inhibition” value turn out when `CC(C)C[C@@H]1N[C@H](C(=O)NCc2ccccc2)Cc2cn(Cc3ccncc3)c3cccc1c23` was run?
Its value is inactive: -3.1%.
